{"source": "the RNAGym collection of RNA variant scans (doi:10.7554/elife.90254)", "parents": {"B1": {"name": "LINE1-mini (parent)", "chain": "GGCAGAGCUCAACACAGCGUGGCAAAGUGGCUGUGGCUAGACUGCC"}}, "note": "Read counts are not given, so values of variants with three or more changes are uncertain.", "data": [{"variants_of": "B1", "test": "self-cleavage, relative activity (ratio to wild type); higher = more cleavage; in vitro, sequencing; the parent is a self-cleaving ribozyme", "values": [{"variant": "GGCAGAGCUCAACAGAGCGUGGCAAAGUGGCUGUGGAUAGGCUCCC", "note": "[C15G C37A A41G G44C]", "self-cleavage": 0.01}, {"variant": "GGCAGAGCUCAACAAAGCGUGGCAAAGUGGCUGCGGCUAGACGGCC", "note": "[C15A U34C U43G]", "self-cleavage": 0}, {"variant": "GGCAGAGCUCAACAAAGCGUGCCAAAGUGGCUGUGGUUAGACUGCC", "note": "[C15A G22C C37U]", "self-cleavage": 0.09}, {"variant": "GGCAGAGCUCAACAGUGCGUGGCAAAGUGGCUGUGGCUAGACUACC", "note": "[C15G A16U G44A]", "self-cleavage": 0.03}, {"variant": "GGCAGAGCUCAACAUAGCGUGGAAAAGAGGCUGUGGCUAGACUGGC", "note": "[C15U C23A U28A C45G]", "self-cleavage": 0.21}, {"variant": "GGCAGAGCUCAACAAAGCUUGGCAAAGUGGACGUGGCUAGACUGCC", "note": "[C15A G19U C31A U32C]", "self-cleavage": 0.01}, {"variant": "GGCAGAGCUCAACAGAGCGAGGCAAGGUGGCUGUGGUUAGAUUGCC", "note": "[C15G U20A A26G C37U C42U]", "self-cleavage": 0.01}, {"variant": "GGCAGAGCUCAACAGAUCGUCGCAAAGUGAAUGUGGCUAGACUGCC", "note": "[C15G G17U G21C G30A C31A]", "self-cleavage": 0.06}, {"variant": "GGCAGAGCUCAACAGUGCGUGGCAAAGUGGCUGUGGCUAGGCUGCC", "note": "[C15G A16U A41G]", "self-cleavage": 0.01}, {"variant": "GGCAGAGCUCAACAGAGCGUGGCAAAGUGGAUGUGGCUAGACUACC", "note": "[C15G C31A G44A]", "self-cleavage": 0.13}, {"variant": "GGCAGAGCUCAACAGAGCGUGGAAAACUCGCUGGGGCUAGACUGCC", "note": "[C15G C23A G27C G29C U34G]", "self-cleavage": 0}, {"variant": "GGCAGAGCUCAACAAAGCGUAGCAAAGUGCCUGUUGCUAGAUUGCC", "note": "[C15A G21A G30C G35U C42U]", "self-cleavage": 0.03}, {"variant": "GGCAGAGCUCAACAUAGCGUGGCCACGUGGCUGUGACUAGCCUGCC", "note": "[C15U A24C A26C G36A A41C]", "self-cleavage": 0.07}, {"variant": "GGCAGAGCUCAACAAAGCGUGGCAAAGUGGCUUUGGCGAGCCUGCC", "note": "[C15A G33U U38G A41C]", "self-cleavage": 0}, {"variant": "GGCAGAGCUCAACAGAGCGUGGCGAAGUGUCUGUGGCUAGACUGCC", "note": "[C15G A24G G30U]", "self-cleavage": 0.13}, {"variant": "GGCAGAGCUCAACAAAGCGUGGCAAAGUGACUGUGGUUAGACUGCC", "note": "[C15A G30A C37U]", "self-cleavage": 0.05}, {"variant": "GGCAGAGCUCAACAGAACGUGGCAAAGUGACUGUGGCUAGACUGCC", "note": "[C15G G17A G30A]", "self-cleavage": 0.09}, {"variant": "GGCAGAGCUCAACAUAGCGUGGCACAGUGGCUGUGGCAAGACUGCA", "note": "[C15U A25C U38A C46A]", "self-cleavage": 0.09}, {"variant": "GGCAGAGCUCAACAAAGCGUGGCAAAGUUGCUGUGGUUAGACUGCA", "note": "[C15A G29U C37U C46A]", "self-cleavage": 0.03}, {"variant": "GGCAGAGCUCAACAGAGCGUGUCAAAGUGCCUGUGGCUAGACUGCC", "note": "[C15G G22U G30C]", "self-cleavage": 0.02}, {"variant": "GGCAGAGCUCAACAGAGCGUGUCAAAGUGACUGUGGCUAGACUGCC", "note": "[C15G G22U G30A]", "self-cleavage": 0.01}, {"variant": "GGCAGAGCUCAACAGAGCGUGGCAGAGUGGCUGUUGCUAGUGUGCA", "note": "[C15G A25G G35U A41U C42G C46A]", "self-cleavage": 0.02}, {"variant": "GGCAGAGCUCAACAGAGCUUGGCACAGUGGCUGUGGCGAGACUGCC", "note": "[C15G G19U A25C U38G]", "self-cleavage": 0}, {"variant": "GGCAGAGCUCAACAGAGCGUGGCAAAGUGGCUCUGACUAGACUGGC", "note": "[C15G G33C G36A C45G]", "self-cleavage": 0.05}, {"variant": "GGCAGAGCUCAACAGUGGGUGUCAAAGUGGCUGUUGCUAGACCGCU", "note": "[C15G A16U C18G G22U G35U U43C C46U]", "self-cleavage": 0.04}, {"variant": "GGCAGAGCUCAACAGAGCGUGGCAAAGGUGCUGUGGCUAGACUGUC", "note": "[C15G U28G G29U C45U]", "self-cleavage": 0.01}, {"variant": "GGCAGAGCUCAACAGAGCGUGGGAAAGUUGCUGUGGCUAGACUGCC", "note": "[C15G C23G G29U]", "self-cleavage": 0.06}, {"variant": "GGCAGAGCUCAACAGAGCGUGGCAAAGUGGCUGUGGUUAGACAGCC", "note": "[C15G C37U U43A]", "self-cleavage": 0}, {"variant": "GGCAGAGCUCAACAAAGCGGGGCAAAGUUGCUGUGGCAAGACUCCC", "note": "[C15A U20G G29U U38A G44C]", "self-cleavage": 0.07}, {"variant": "GGCAGAGCUCAACAGAGCAUGGCAAAGUGGCUGUCGCCAGACUGCC", "note": "[C15G G19A G35C U38C]", "self-cleavage": 0.01}, {"variant": "GGCAGAGCUCAACAAAGCUAGGCAAAGUGGCUGUGGCUAGACUGCC", "note": "[C15A G19U U20A]", "self-cleavage": 0.03}, {"variant": "GGCAGAGCUCAACAAAGCUUGGCAAAGUGCCUGUGGCUAGACUGCC", "note": "[C15A G19U G30C]", "self-cleavage": 0.08}, {"variant": "GGCAGAGCUCAACAAAGCGUGGCAAAGUGGCUGUGUCUAGACUGAC", "note": "[C15A G36U C45A]", "self-cleavage": 0.03}, {"variant": "GGCAGAGCUCAACAGAGCAUGGCAUAGUGGCUCUGGCUAGACUGCC", "note": "[C15G G19A A25U G33C]", "self-cleavage": 0.36}, {"variant": "GGCAGAGCUCAACAAAGCGUGGCAAAUUGGCUGAGGCUAGACUGCC", "note": "[C15A G27U U34A]", "self-cleavage": 0.02}, {"variant": "GGCAGAGCUCAACAAAGCGUUGCAAAGUGGCUGUGGCUAGACUGCU", "note": "[C15A G21U C46U]", "self-cleavage": 0.04}, {"variant": "GGCAGAGCUCAACAAAGCGUGGCAAAGUGUCUUUGGCUAGACUGCC", "note": "[C15A G30U G33U]", "self-cleavage": 0.19}, {"variant": "GGCAGAGCUCAACAGAGCUCGUCAAAGUGGCUGUGGCUAGGGUGCC", "note": "[C15G G19U U20C G22U A41G C42G]", "self-cleavage": 0}, {"variant": "GGCAGAGCUCAACAAAGCGUGGCAAAGUGCCCAUGGAUAGACUGCC", "note": "[C15A G30C U32C G33A C37A]", "self-cleavage": 0.01}, {"variant": "GGCAGAGCUCAACAAAGCGUGGCAAAGUAGCUGUGGUUAGACUGCC", "note": "[C15A G29A C37U]", "self-cleavage": 0.01}, {"variant": "GGCAGAGCUCAACAGAAAGUGACAAAGUGUCUGUGGCUAGACUGGC", "note": "[C15G G17A C18A G22A G30U C45G]", "self-cleavage": 0.05}, {"variant": "GGCAGAGCUCAACAUAGCGUGGCAGAGUGGCUGUGGCUAAACUGCC", "note": "[C15U A25G G40A]", "self-cleavage": 0.04}, {"variant": "GGCAGAGCUCAACAGAGCGUGGCAAAGUGGAUGUGGCUAGACUGAC", "note": "[C15G C31A C45A]", "self-cleavage": 0.03}, {"variant": "GGCAGAGCUCAACAGGGCGUGGCAAUGUGGCUGUGGCUAGACUGCC", "note": "[C15G A16G A26U]", "self-cleavage": 0.09}, {"variant": "GGCAGAGCUCAACAGAGCGUCGCACAGUGGCUGUGUCUAGACUGGC", "note": "[C15G G21C A25C G36U C45G]", "self-cleavage": 0.01}, {"variant": "GGCAGAGCUCAACAUAGAGUGGCAAAGUGGAUGUCCCUAGACUGCC", "note": "[C15U C18A C31A G35C G36C]", "self-cleavage": 0.02}, {"variant": "GGCAGAGCUCAACAGAGCGUGGCUAUGUGGCUGUGGCUAGACUGCC", "note": "[C15G A24U A26U]", "self-cleavage": 0.07}, {"variant": "GGCAGAGCUCAACAUGGCGUUGCGUAGUCGCUGUGGCUAGACUGCC", "note": "[C15U A16G G21U A24G A25U G29C]", "self-cleavage": 2.02}, {"variant": "GGCAGAGCUCAACAGAGCGGGGCAAAGUGGUUGUGGCUGGACUGCC", "note": "[C15G U20G C31U A39G]", "self-cleavage": 0.02}, {"variant": "GGCAGAGCUCAACAAAGCGUGGCAAAGUCGCUGUGGCUAGACUGUC", "note": "[C15A G29C C45U]", "self-cleavage": 0.03}, {"variant": "GGCAGAGCUCAACAGAGCAUGGCAAAGUGGCAGUGGCUAGAGUGCC", "note": "[C15G G19A U32A C42G]", "self-cleavage": 0.02}, {"variant": "GGCAGAGCUCAACAAAGCGUGGCAAAGUGGCAGUGGCUAGAGUGCC", "note": "[C15A U32A C42G]", "self-cleavage": 0.03}, {"variant": "GGCAGAGCUCAACAGAGCGUGGCAUUGUCGCUGUGGCUAGACUGAC", "note": "[C15G A25U A26U G29C C45A]", "self-cleavage": 0.08}, {"variant": "GGCAGAGCUCAACAGAGCGUGGCAAAAUGGCUGUGGUUAUACUGCU", "note": "[C15G G27A C37U G40U C46U]", "self-cleavage": 0.02}, {"variant": "GGCAGAGCUCAACAGCGCGUGGCAAAUUGGCUAUGUCUAGACUGCC", "note": "[C15G A16C G27U G33A G36U]", "self-cleavage": 0.04}, {"variant": "GGCAGAGCUCAACAAAGCGUGGCAAAGUGGCUUUGGCUAAACUGCC", "note": "[C15A G33U G40A]", "self-cleavage": 0.04}]}]}
